Among all 48,000 compounds or so, about 120 (0.25%) were called active. About 4% were inconclusive and are not listed. Calls come from the whole dose curve; as a rule, active = well fitted activation curve with a large enough effect; inconclusive = small, poorly fitted or top-dose-only effect, or another doubt; inactive = no such curve, though single readings can be large or run the other way. Some of the results follow.
Experiment: Primary qHTS for Identification of Small Molecule Activators of Huntingtin-Antisense Promoter Activity; note: nearly all actives have a fitted effect of over 55% in size
Conditions: HEK293 HTT-AS promoter firefly luciferase reporter, 24 h; series mostly up to 57.5 µM; activity change, positive = activation: at the top concentration
Summary of the method: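 Luminescence was read after Dual-Glo reagent and a 10 min room-temperature incubation. Values were normalized to vehicle (0% activity) and zero RLU (-100% activity). Reporter HEK293 cells had been exposed to compounds (up to 57.5 uM final) for 24 h.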

Activity change, positive = activation, inactive:
Cc1ccc(C)c(Cn2c(=O)c3c(nc4n3CCN4c3ccccc3)n(C)c2=O)c1 -14.6%
CCSc1ncc(Cl)c(C(=O)Nc2sc3c(c2C(=O)NCCCOC)CCCC3)n1 -7.44%
CC(=O)N1CCc2c(sc3c2c(=O)n(CCc2ccccc2)c(=O)n3Cc2ccccc2C)C1 -45.9%
COc1ccc(NC(=O)CSc2nc(-c3cccc(C)c3)[nH]c2-c2ccccc2)cc1OC -20.6%
Cc1ccc(C)c(-c2ccc(=O)n(Cc3c(F)cccc3Cl)n2)c1 -19.3%
COc1ccc(N2C(=O)CSC23C(=O)N(CC(=O)NCCc2ccccc2)c2ccccc23)cc1 (stereo not drawn) -1.7%
O=C(CSc1nc(=O)[nH]c2c1CCCC2)NCc1ccccc1 -1.16%
COc1ccccc1C(=O)Nc1ccc(C(=O)OCc2cc(=O)n3nc(C4CC4)sc3n2)cc1 0%
Cc1nn2c(C)c(C(=O)NC(C)(C)C)cnc2c1-c1ccc(F)cc1 -14.8%
Cc1ccc(N2CC(NC(=O)c3cc4ccccc4o3)CC2=O)cc1 (stereo not drawn) -5.44%
COc1ccc(NC(=O)Cn2c(=O)n(Cc3ccccc3)c(=O)c3sc4ccccc4c32)cc1 -9.7%
CCOc1ccc(C(=O)Nc2ccc3oc(-c4ccc5ccccc5c4)nc3c2)cc1 13.4%
CCCCNC(=O)c1cc2n(n1)CCCN(Cc1ccc(C)cc1)C2=O 11%
CCc1ccc(Cn2c(CNS(=O)(=O)c3ccc(C)c(C)c3)nc3cccnc32)cc1 -13.9%
Cc1ccc(S(=O)(=O)c2c(O)cc(C)c(NS(=O)(=O)c3ccc(Cl)cc3)c2C)cc1 -36.1%
COc1ccccc1N1CCN(S(=O)(=O)c2c(C)nc3sccn3c2=O)CC1 -6.81%
Cc1cc(C)c2sc(N3CCN(C(=O)c4ccc(N(C)C)cc4)CC3)nc2c1 -21.4%
CCCCCCCCCCCCCCCCCC(=O)OCC(O)CO (stereo not drawn) -2.57%
CC(C)c1nn2c(=O)cc(COC(=O)c3ccco3)nc2s1 2.1%
CCC(Oc1ccc(F)cc1)C(=O)Nc1c(C(=O)c2ccc(C)cc2)oc2ccccc12 (stereo not drawn) -1.27%
CCn1cc(C(=O)N2CCN(c3ccccc3)CC2)c(=O)c2cc(S(=O)(=O)N3CCOCC3)ccc21 -13%
CCn1c2c(c(=O)n3ncc(C(=O)N4CCN(c5ccc(Cl)cc5)CC4)c13)CN(Cc1ccc(OC)cc1)CC2 -63.6%
COc1ccc(-c2nc3scc(CCNS(=O)(=O)c4ccc(F)cc4C)n3n2)cc1 -25.1%
COC(=O)c1cc2oc3ccccc3c2n1Cc1ccc(Cl)cc1 11.4%
CCN(CC)CCNC(=O)c1cc2c(=O)n(C)c3cc(Cl)ccc3c2s1 -16.8%
CCOC(=O)c1[nH]c(C)c(CCC(=O)NCc2ccc(CC)cc2)c1C -27.2%
COc1cccc(CN2c3ccccc3-c3nc(SCC(=O)Nc4ccccc4Cl)ncc3S2(=O)=O)c1 -37.6%
Cc1ccc(-c2ccc(=O)n(CCC(=O)NCCc3ccccc3)n2)cc1 -1.29%
COc1ccc(Nc2cc(C(=O)NCCCN3CCN(c4ccccc4F)CC3)c3ccccc3n2)c(OC)c1 -25.8%
CC(C)(F)C[C@H](N[C@@H](c1ccc(-c2ccc(S(C)(=O)=O)cc2)cc1)C(F)(F)F)C(=O)NC1(C#N)CC1 -10.1%
O=C1CSC2(C(=O)N(Cc3cccc(F)c3)c3ccccc32)N1c1cccc(C(F)(F)F)c1 (stereo not drawn) -43%
CC(C)COc1ccc(C(=O)N2CCN(CCc3ccncc3)CC2)cc1 -35.3%
COc1ccc(NC(=O)c2ccc3nc(C(C)C)oc3c2)cc1OC 7.63%
COc1ccc(N(C)C(=O)c2cn(C)c(=O)c3cc(OC)c(OC)cc23)cc1 -13.7%
Cc1ccc(Cn2c(CO)cnc2SCC(=O)Nc2ccc(C)c(Cl)c2)cc1 -21.6%
CCCCN(C)CCNC(=O)c1cc2c(=O)n(C)c3ccccc3c2n1C -4.48%
COc1ccc(CNC(=O)CCc2c(C)c3cc4c(C)coc4c(C)c3oc2=O)cc1OC -17.4%
Cc1ccc(S(=O)(=O)CC(=O)N2CCN(c3nc4c(F)cccc4s3)CC2)cc1 -11%
CN1C(=O)c2ccccc2Sc2ccc(NC(=O)c3ccc(C(F)(F)F)cc3)cc21 -29.1%
CCCc1nn2c(=O)cc(COC(=O)c3ccc(NC(=O)COc4ccccc4)cc3)nc2s1 -1.74%
N#Cc1ccccc1NS(=O)(=O)c1ccc(N2CCCCS2(=O)=O)cc1 10.7%
CCN(CC)C(=O)c1sc2c(c1C)c(=O)n(CCc1ccccc1)c(=O)n2Cc1cc(C)ccc1C -7.74%
O=C(CSc1nnc(-c2cccs2)o1)Oc1ccccc1Cl -2.81%
CC(C)(C)C(=O)NCC(c1ccc2c(c1)OCO2)N1CCOCC1 (stereo not drawn) -1.61%
COc1cccc(N2CCN(C(=O)c3cc4c(s3)-c3ccccc3OC4)CC2)c1 -28.2%
O=C(NCCc1ccc(Cl)cc1)c1ccc(CS(=O)(=O)c2ccc(Cl)cc2)o1 -6.75%
Cc1cccc(C)c1NC(=O)C(NS(=O)(=O)c1cccs1)c1ccccc1 (stereo not drawn) -17.7%
O=C(Cn1ccn(-c2ccc(F)cc2)c(=O)c1=O)Nc1ccc(F)cc1 -3.01%
O=C(Cn1ncc2c3ccccc3n(Cc3cccc(Cl)c3)c2c1=O)Nc1ccc(F)cc1F -14.9%
COc1cc(CNC(=O)c2ccc3c(c2)c(C)c(C)n3Cc2cccc(C)c2)cc(OC)c1OC -19.2%
COc1ccc(NC(=O)Cn2cc(S(=O)(=O)c3ccccc3)c(=O)c3cc4c(cc32)OCO4)cc1 -7.63%
CCN1CCc2c(sc(-n3cccc3)c2C(C)NC(=O)Nc2ccc(Br)cc2)C1 (stereo not drawn) 4.72%
CCCC(=O)OCc1cnc(C)c2oc(=O)c(C(=O)Nc3cccc(C(F)(F)F)c3)cc12 -13.3%
CON=C(C(=O)N[C@@H]1C(=O)N2C(C(=O)OCOC(=O)C(C)(C)C)=C(C=Cc3scnc3C)CS[C@H]12)c1csc(N)n1 -3.28%
COc1ccc(N(Cc2cccs2)C(=O)c2ccc(OC)c(Cl)c2)cc1 -40.1%
Cc1cccc(N2CCN(C(=O)C3CCN(S(=O)(=O)c4c(C)noc4C)CC3)CC2C)c1 (stereo not drawn) -33.2%
Cc1c(C(=O)Nc2ccccc2)sc2nc(-c3cc4cc(Cl)ccc4oc3=O)[nH]c(=O)c12 -12.2%
CCCS(=O)(=O)c1c(S(=O)(=O)CCC)c2cc(C(C)(C)C)ccn2c1C(=O)c1ccccc1 -83.6%
COc1cccc(N2CCN(C(=O)C3CCN(S(=O)(=O)c4c(C)noc4/C=C/c4ccccc4F)CC3)CC2)c1 -5.78%
CCC(=O)Nc1ccccc1-c1nc2ccccc2n(CC(=O)Nc2ccccc2OC)c1=O -21.6%
Cc1ccc(CNS(=O)(=O)c2ccc3c(c2)CC(C)N3C(=O)C2CCC2)cc1 (stereo not drawn) -1.91% [at 11.5 µM, percent change from vehicle, -100% = no light]
COc1ccc(OC)c(C(=O)CN2C(=O)N(c3ccc(C)cc3)S(=O)(=O)c3ccccc32)c1 -12.3%
O=C(Cn1c(-c2cccs2)cc2ccccc21)N1CCN(c2ccc(F)cc2)CC1 -19%
Cc1cc(NC(=O)c2cc(-c3ccc(Cl)c(Cl)c3)on2)n(-c2ccccc2)n1 -8.34%
CCOc1ccc(CNC(=O)C2CCN(C(=O)N3CC(CC)Oc4ccc(C)cc43)CC2)cc1OC (stereo not drawn) -36.5%
COc1ccccc1NC(=O)Cn1c(=O)n(CC2CCC(C(=O)NCCc3ccccc3)CC2)c(=O)c2ccccc21 (stereo not drawn) -15%
CCOC(=O)CSc1nc2sc3c(c2c(=O)n1-c1ccc(OC)cc1)CC(C(C)C)OC3 (stereo not drawn) 3.26%
Cc1ccccc1N1CC(c2nc3ccccc3n2Cc2ccc(Br)cc2)CC1=O (stereo not drawn) -53.3%
Cc1cc(Br)ccc1NC(=O)c1c(C)oc2ncnc(N3CCCCC3)c12 -14.5%
COc1cc2nccc(Oc3ccc(NC(=O)Nc4ccc(F)cc4F)c(F)c3)c2cc1OC 2.88%
CCN(CC)CCOC(=O)c1ccc(NC(=O)c2cc3cc(OC)ccc3oc2=O)cc1 -9.22%
COCCNC(=O)CN1C(=O)COc2ccc(S(=O)(=O)N3CCCC3)cc21 -15.7%
Cc1nnc(SCC(=O)Nc2ccc(N(C)C)cc2)[nH]c1=O -9.8%
CCOC(=O)N1CCc2c(sc3c2C(=O)NC(c2ccc(C(=O)OC)cc2)N3)C1 (stereo not drawn) -19.6%
CCc1ccc(NC(=O)Cn2c(=O)n(CCCC(=O)NCCc3ccc(OC)c(OC)c3)c(=O)c3ccccc32)cc1 -11%
Cc1ccccc1NC(=O)CCn1nc(-c2ccccc2)c2ccccc2c1=O -11.2%
CCOc1ccc(Sc2cc(C(=O)NCc3ccccc3Cl)c3ccccc3n2)cc1 -22.5%
Cc1cccc(NC(=O)N2CCN3CCCCC3C2)c1C (stereo not drawn) -1.52%
COc1cc(NC(=O)CCS(=O)(=O)c2ccc3c(c2)n(C)c(=O)c(=O)n3C)cc(OC)c1 -3.37%
Cc1cccc(C)c1Nc1c(-c2ccsc2)nc2cccc(C)n12 -27.4%
COc1ccccc1N1CCN(c2csc3ccccc3c2=O)CC1 24.6%
COc1cccc(NC(=O)Cn2c(-c3nonc3N)nc3ccccc32)c1 -11.4%
COc1ccccc1CNC(=O)CCCCn1c(=O)c2ccccc2n(CC(=O)Nc2cccc(Cl)c2)c1=O -35.1%
CCOc1ccc(/C=C/c2nc(C#N)c(N3CCC(C)CC3)o2)cc1 -24.3%
COC(=O)c1cc2oc3ccccc3c2n1Cc1ccccc1Cl -8.82%
COc1ccc(CNC(=O)C(=O)Nc2cccc(C)c2C)cc1 -8.73%
Cc1ccc(-n2ncc3c(N4CCN(c5ccc(F)cc5)CC4)ncnc32)cc1 -11.5%
COc1ccc2oc(-c3ccc(NC(=O)c4ccc(Cl)cc4Cl)cc3)nc2c1 -17.8%
O=c1c(-c2cc(-c3ccccc3)nc3c2COc2ccccc2-3)coc2ccc(Cl)cc12 -15.5%
CN1CCN(C2=Nc3ccccc3Sc3ccc(Cl)cc32)CC1 -5.91%
O=C(Nc1cc(Cl)ccc1Cl)c1cc(S(=O)(=O)N2CCc3ccccc3C2)ccc1F -13.7%
CCc1ccc(NC(=O)C2CCCN(c3nnc(C)c4c(C)n(-c5ccccc5)nc34)C2)cc1 (stereo not drawn) 2.26%
CCN1CCN(c2cc(C)c3cc(NC(=O)/C=C/c4ccc(C)cc4)ccc3n2)CC1 4.97%

— PubChem BioAssay AID1508624 (National Center for Advancing Translational Sciences (NCATS), 2021)
